PubChem BioAssay AID686970 (National Center for Advancing Translational Sciences (NCATS), 2013)
Values joined by “and” are separate entries in the source; they are usually repeats but may differ in a detail not shown here. Equal entries are not always repeated. The whole screen tested about 360,000 compounds, of which about 6,000 (1.7%) were called active. Inconclusive results, whose numbers are uncertain, are shown with a selection of clear calls. Calls follow the shape of the dose curve; as a rule, active = well fitted cell-killing curve with a large enough effect; inconclusive = small, poorly fitted or top-dose-only effect, or effect the other way; inactive = flat fitted curve, though single readings scatter. Potencies of inconclusive entries are doubtful fits and often do not repeat.

experiment: qHTS for induction of synthetic lethality in tumor cells producing 2HG: qHTS for the HT-1080-NT fibrosarcoma cell line; settings: HT-1080-NT fibrosarcoma viability, CellTiter-Glo ATP luminescence, 48 h; activity, negative = less viability: at 46.1 µM (top of the series) unless noted;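 also: NT is the 2HG producing partner of a matched IDH1 knockdown line; nearly all actives have a fitted effect of over 55% in size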;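 as to activity, negative = less viability: 0% = DMSO-treated cells and -100% = media-only wells without cells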
Outline: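 Toxicity toward the 2HG-producing NT line was scored as %Activity, normalised to DMSO and no-cell wells, from CellTiter-Glo luminescence after 48 hours' treatment.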
Potency is read from the fitted curve at half-maximal effect; tags tell the direction and shape of the fitted curve.

| SMILES | activity, negative = less viability | Potency |
| --- | --- | --- |
| CCc1ccc(OCc2n[nH]c(=S)n2Cc2ccccc2)cc1 | inactive: -17.8% | – |
| Cc1c(CC(=O)N2CCN(C(=O)C3COc4ccccc4O3)CC2)c(=O)oc2c(C)c(O)ccc12 (stereo unspecified) | inactive: -9.78% | – |
| CCN(CC)S(=O)(=O)c1cc(NC(=O)CNc2cccc(S(=O)(=O)N3CCCC3)c2)ccc1C | – | active: 4.61 µM |
| Cn1nnc2c[n+](CC(=O)c3ccc(Cl)cc3)cc(Br)c21 | – | inconclusive: 20.6 µM [cytotoxic, single point] |
| CCCCNC(=O)C(C)N(CCN(C)C)C(=O)CCCN1C(=O)NC(c2ccc([N+](=O)[O-])cc2)C(C(=O)OCc2ccccc2)=C1C (stereo unspecified) | – | inconclusive: 32.6 µM [cytotoxic, single point] |
| COc1ccc(Cl)c2sc(N(CCN(C)C)C(=O)CCS(=O)(=O)c3ccc(C)cc3)nc12 | – | inconclusive: 29.1 µM [cytotoxic, single point] |
| CCc1nnc(N/N=C/c2c(Cl)cccc2Cl)n1N | inactive: -20.2% | – |
| O=C(NC1CCCCC1)C(c1ccc(F)cc1)N(Cc1ccc2c(c1)OCO2)C(=O)c1cnsn1 (stereo unspecified) | inactive: 14% | – |
| COC(=O)[C@@]1(Cc2ccc(F)cc2)[C@H]2c3cc(C(=O)N4CCCC4)n(CCc4c[nH]c5ccccc45)c3C[C@H]2CN1C(=O)c1ccccc1 | – | inconclusive: 8.2 µM [cytotoxic, partial curve] |
| O=C(Cc1cccs1)N(Cc1cccs1)C1(C(=O)NC2CCCCC2)CCCCC1 | inactive: 3.88% | – |
| Oc1ccccc1CNc1ncc(Br)cc1Br | – | inconclusive: 29.1 µM [cytotoxic, single point] |
| Cc1ccc(-n2c([C@@H]3C[C@H]3c3ccccc3)n[nH]c2=S)cc1 | inactive: 8.04% | – |
| O=S(=O)(c1ccccc1)N1CCN(c2cc(-c3ccccc3)nc3ncnn23)CC1 | inactive: -1.04% | – |
| Cc1cccc(N2CCN(C3C(=O)Nc4ccccc4-n4nnnc43)CC2)c1C (stereo unspecified) | – | inconclusive: 16.4 µM [cytotoxic, single point] |
| COc1cc2c(cc1NC(=O)c1cccc([N+](=O)[O-])c1C)oc1ccccc12 | – | inconclusive: 10 µM [cytotoxic, partial curve] |
| CC(C)(C)c1cc(C(c2cccnc2)N2CCN(CCO)CC2)cc(C(C)(C)C)c1O (stereo unspecified) | – | active: 6.31 µM |
| Cc1ccc(SCC(=O)N2CCN(S(=O)(=O)c3cccs3)CC2)cc1 | inactive: 1.22% | – |
| C/C(=N/NC(=O)COc1cc(C)ccc1C(C)C)C(=O)O | – | inconclusive: 16.4 µM [cytotoxic, partial curve] |
| O=C1c2ccccc2-c2onc3ccc(N4CCCC4)c1c23 | – | inconclusive: 29.1 µM [cytotoxic, single point] |
| Cc1ccc(Cc2c(C3CCCCC3)nc3ccc(Br)cn23)cc1 | – | inconclusive: 29.1 µM [cytotoxic, single point] |
| Brc1ccccc1CN1CCC(Cc2ccccc2)CC1 | – | inconclusive: 18.4 µM [cytotoxic, single point] |
| CC(NC(=O)C1CCN(Cc2ccc(Oc3ccccc3)cc2)CC1)c1cccc2ccccc12 (stereo unspecified) | – | inconclusive: 29.1 µM [cytotoxic, single point] |

| SMILES | activity, negative = less viability | Potency |
| --- | --- | --- |
| CCCCCOc1ccc(Br)cc1CSC(=N)N | – | inconclusive: 29.1 µM [cytotoxic, single point] |
| COc1ccc(NC(=O)Cn2nnc(C(=O)NCc3ccccc3OC)c2N)cc1Cl | – | inconclusive: 35.5 µM [cytotoxic, single point] |
| COc1cccc(NC(=O)c2ccc3c(c2)OCCO3)c1 | – | inconclusive: 10.3 µM [cytotoxic, partial curve] |
| Cc1cc(C)n(-c2ccc(Cl)c(C(=O)Nc3cc(C(F)(F)F)ccc3Cl)n2)n1 | inactive: 8.64% | – |
| CCOC(=O)c1c(NC(=O)C[n+]2ccc(Cc3ccccc3)cc2)sc(C)c1C | – | inconclusive: 29.1 µM [cytotoxic, single point] |
| CCOC(=O)C1CCN(C(=O)c2cccc(N3C(=O)NC4CC3(C)Oc3ccc(C)cc34)c2)CC1 (stereo unspecified) | inactive: -3.09% | – |
| O=C(N/N=C/c1ccc(Cl)c(Cl)c1)c1ccc2nc[nH]c2c1 | – | inconclusive: 4.11 µM [cytotoxic, full curve] |
| COc1ccc(-c2nc(NC(=O)Cn3ccc(C(F)(F)F)n3)sc2C)cc1 | – | inconclusive: 20.6 µM [cytotoxic, single point] |
| CCOC(=O)C(C)Sc1nc(-c2ccco2)cc(C(F)(F)F)c1C#N (stereo unspecified) | – | inconclusive: 29.1 µM [cytotoxic, single point] |
| C=CCSc1nsc(NC(=O)Nc2ccc(F)cc2)n1 | – | active: 16.4 µM |
| O=C(C[N+]1(CC#Cc2ccccc2)CCOCC1)c1ccc(Cl)cc1 | – | inconclusive: 32.6 µM [cytotoxic, partial curve] |
| CC(C)(C)SCCNC(=O)/C=C/c1ccc(F)cc1 | – | inconclusive: 29.1 µM [rising, partial curve, poor fit] |
| O=C(O)c1ccc(COc2ccc3ccccc3c2/C=C2/NC(=O)N(Cc3ccc(F)cc3)C2=O)cc1 | – | inconclusive: 6.51 µM [cytotoxic, partial curve] |
| COc1ccc(/C=N\NC(=O)c2ccc([N+](=O)[O-])cc2)cc1COc1c(F)c(F)cc(F)c1F | inactive: -1.99% | – |
| O=C(NCc1ccccc1F)C1CCCN(C(=O)Nc2ccccc2)C1 (stereo unspecified) | inconclusive: -34.3% [cytotoxic] | – |
| COc1ccc(OC)c(Nc2nc(-c3ccc(O)c(O)c3)cs2)c1 | inconclusive: -30% [cytotoxic] | – |
| CC(C)C[C@H](NC(=O)c1nc[nH]c1C(=O)NC1CCN(C(=O)OC(C)(C)C)CC1)C(=O)OCc1ccccc1 | – | inconclusive: 29.1 µM [cytotoxic, single point] |
| O=C(CNC(=O)c1cccnc1)N=Nc1c(O)[nH]c2c(Br)cc(Br)cc12 | – | inconclusive: 18.4 µM [cytotoxic, single point] |
| CCN1CCN(Cc2ccc(NC(=O)c3cc(NC(=O)c4cc5cccc(OC)c5o4)cc(OC)c3)cc2C(F)(F)F)CC1 | – | inconclusive: 18.4 µM [cytotoxic, partial curve] and inconclusive: 23.1 µM [cytotoxic, single point] |
| O=C(CCCCCNC(=S)Nc1ccc(Cl)cc1)C[N+](=O)[O-] | – | inconclusive: 6.51 µM [cytotoxic, partial curve] |
| COc1ccc(CCNC(=O)c2ccc3nc(-c4ccco4)c(-c4ccco4)nc3c2)cc1OC | inconclusive: -30.2% [cytotoxic] | – |
| CC(NCCC(c1ccccc1)c1ccccc1)c1ccccc1 (stereo unspecified) | – | inconclusive: 29.1 µM [cytotoxic, single point] |

| SMILES | activity, negative = less viability | Potency |
| --- | --- | --- |
| Cc1ccc(S(=O)(=O)c2ncccc2[N+](=O)[O-])cc1 | – | active: 9.2 µM |
| COc1ccc(-c2cc(NC=O)c3ncc(-c4cccc(C(=O)NCCN(C)C)c4)n3c2)cc1 | – | inconclusive: 18.4 µM [cytotoxic, single point] |
| COc1ccc(CN2CCc3c([nH]c4ccccc34)C2)c(OC)c1C | – | inconclusive: 16.4 µM [cytotoxic, partial curve] |
| CCN(CC(=O)Nc1ccc2c(c1)OCCO2)C(=O)/C=C/c1cc(Br)ccc1OC | inactive: 4.99% | – |
| CCn1c(=O)cc(OCC(=O)NC2CC2)c2ccccc21 | inactive: -19.6% | – |
| O=S(=O)(Nc1ccc(-c2ccccc2)cc1)c1ccccc1 | inconclusive: -33.7% [cytotoxic] | – |
| Cc1nn(-c2ccccc2)c(Cl)c1/C=N/NC(=O)c1nn(C)cc1[N+](=O)[O-] | – | inconclusive: 29.1 µM [cytotoxic, single point] |
| Cc1ccc(-c2csc(C3=C(O)CN(NC(=O)c4ccco4)C3=N)n2)cc1 | – | inconclusive: 29.1 µM [rising, single point] |
| C/C(=N\OC(=O)Nc1ccccc1)c1cnn(-c2cc(C(F)(F)F)cc(C)n2)c1C | – | inconclusive: 20.6 µM [rising, single point] |
| COc1ccc(C(=O)Nc2ccccc2C)cc1S(=O)(=O)N1CCOCC1 | inactive: 24.3% | – |
| CN(Cc1ccccc1)C(=O)c1[nH]cnc1C(=O)Nc1ccc(Cl)cc1 | – | inconclusive: 20.6 µM [rising, single point] |
| CS(=O)(=O)CCC(C(=O)O)N1C(=O)c2ccc(Oc3ccc(Cl)cc3)cc2C1=O (stereo unspecified) | inactive: 3.02% | – |
| Cc1ccc(CNC(=O)C(C(=O)NCc2ccc(C)o2)c2ncc(C(F)(F)F)cc2Cl)o1 | – | inconclusive: 32.6 µM [cytotoxic, single point] |
| CN(Cc1ccccc1F)C(=O)c1ccc2c(=O)n3c(nc2c1)CCC3 | inactive: -8.49% | – |
| O=C(Cn1sc2ccccc2c1=O)Nc1ccc(F)cc1 | – | inconclusive: 20.6 µM [cytotoxic, single point] |
| COc1ccc(NC(=O)c2ccc(NC(=O)C3CC3)cc2)cc1 | – | inconclusive: 18.4 µM [cytotoxic, single point] |
| Cc1ccc(-n2ncc(C(=O)NCC3CCN(C4CCCC4)C3)c2C2CCN(C(=O)OC(C)(C)C)CC2)cc1C (stereo unspecified) | – | inconclusive: 23.1 µM [cytotoxic, single point] |
| COCOCCn1cc(CN2CCS(=O)(=O)N(Cc3ccc(-c4ccc(Cl)cc4)cc3)C(C)C2=O)nn1 (stereo unspecified) | inactive: -20.6% | – |
| Oc1cccc(/C=N/N2CCN(c3ccccn3)CC2)c1 | inactive: -0.178% | – |
| CCc1ccc(NC(=O)C(=O)NCCOc2ccccc2Cl)cc1 | – | inconclusive: 29.1 µM [cytotoxic, single point] |
| Cc1[nH]c2c(C(=O)N3CCCC(CCC(=O)NCc4ccccc4F)C3)cccc2c1C (stereo unspecified) | – | inconclusive: 18.4 µM [cytotoxic, single point] |
| CC(C)c1ccc(NC(=S)NC2CCN(Cc3ccccc3)CC2)cc1 | – | inconclusive: 20.6 µM [cytotoxic, single point] |
